Five molecules from PMC5040251, “The Structure of Treponema pallidum Tp0751 (Pallilysin) Reveals a Non-canonical Lipocalin Fold That Mediates Adhesion to Extracellular Matrix Components and Interactions with Host Cells” (PLoS Pathogens, 2016) can be followed below.

The chains behind the UniProt entries cited, without tags or fusion partners. Where a name states a change or a piece, a line headed by the entry shows the natural chain unless it says otherwise.
UniProt P02452: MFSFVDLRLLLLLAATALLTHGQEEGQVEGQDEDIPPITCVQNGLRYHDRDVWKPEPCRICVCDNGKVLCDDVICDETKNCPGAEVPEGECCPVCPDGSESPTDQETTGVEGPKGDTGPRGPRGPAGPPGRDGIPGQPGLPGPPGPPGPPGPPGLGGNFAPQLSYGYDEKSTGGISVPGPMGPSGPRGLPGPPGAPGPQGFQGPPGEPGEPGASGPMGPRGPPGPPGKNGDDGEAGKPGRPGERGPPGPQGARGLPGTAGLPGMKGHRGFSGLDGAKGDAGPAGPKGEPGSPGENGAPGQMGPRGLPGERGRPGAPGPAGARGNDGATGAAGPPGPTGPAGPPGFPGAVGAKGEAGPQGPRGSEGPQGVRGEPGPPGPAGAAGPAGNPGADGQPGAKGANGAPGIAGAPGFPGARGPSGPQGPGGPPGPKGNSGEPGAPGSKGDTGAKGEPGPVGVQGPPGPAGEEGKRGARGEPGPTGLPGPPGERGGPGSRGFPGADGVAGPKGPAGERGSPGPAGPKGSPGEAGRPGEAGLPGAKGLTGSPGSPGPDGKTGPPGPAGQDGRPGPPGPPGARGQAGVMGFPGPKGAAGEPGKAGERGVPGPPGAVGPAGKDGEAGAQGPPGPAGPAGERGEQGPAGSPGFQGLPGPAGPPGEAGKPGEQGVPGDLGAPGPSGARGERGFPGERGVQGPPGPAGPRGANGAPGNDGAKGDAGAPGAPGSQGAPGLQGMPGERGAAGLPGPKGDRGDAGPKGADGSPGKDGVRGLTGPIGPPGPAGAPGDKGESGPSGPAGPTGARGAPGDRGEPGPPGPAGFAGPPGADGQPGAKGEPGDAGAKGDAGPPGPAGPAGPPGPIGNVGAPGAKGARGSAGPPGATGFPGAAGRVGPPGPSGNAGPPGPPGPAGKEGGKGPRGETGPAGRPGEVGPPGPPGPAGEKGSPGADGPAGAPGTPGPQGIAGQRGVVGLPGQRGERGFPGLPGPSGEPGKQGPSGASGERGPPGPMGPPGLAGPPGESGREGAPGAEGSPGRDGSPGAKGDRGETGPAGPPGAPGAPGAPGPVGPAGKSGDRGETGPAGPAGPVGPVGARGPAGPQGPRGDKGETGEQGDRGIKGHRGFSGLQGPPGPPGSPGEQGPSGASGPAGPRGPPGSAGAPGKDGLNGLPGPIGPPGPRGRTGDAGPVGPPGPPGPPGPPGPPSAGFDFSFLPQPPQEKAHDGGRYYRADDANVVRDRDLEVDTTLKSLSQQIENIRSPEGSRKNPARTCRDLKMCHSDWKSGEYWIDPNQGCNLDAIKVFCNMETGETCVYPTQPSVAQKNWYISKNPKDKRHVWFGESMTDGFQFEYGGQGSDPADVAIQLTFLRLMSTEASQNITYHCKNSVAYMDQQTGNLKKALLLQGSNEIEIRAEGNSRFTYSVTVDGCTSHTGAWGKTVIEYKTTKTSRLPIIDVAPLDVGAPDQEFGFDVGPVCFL

Like-named read-outs stand apart in the source and are kept apart here. No constants are given. Whether binding was seen depends on the method and setting. Some binding calls cover weakened binding; strength is not graded here.

Assay [1] has as its target human collagen type I (human) (UniProt P02452). The assay is described as follows: ELISA; initial binding screen, single point: host protein immobilised in plate wells, His6-tagged synthetic peptide in solution; absorbance at 600 nm, three wells, two independent experiments; done as in refs 21, 22; both purified. Background: ELISA stands for enzyme-linked immunosorbent assay.

The target is the same in assay [2]. Described as above. The source holds these as a separate data set.

As for “Tp0751 synthetic peptide p8 (from UniProt O83732 144-167)”, the binding result in assay [1] was “no binding”.

B1: Tp0751 synthetic peptide p11 (peptide)
peptide: SIRRRLEVTFESHEVIHVRAVEDV
notes: Tp0751 (pallilysin), Treponema pallidum subsp. pallidum; shares its first 10 residues (with the arginine triplet) with p10; source: synthetic peptide; not shown: His6, N-terminal, kept
With B1, the binding entry in assay [2] is “binds”.

B2: Tp0751 synthetic peptide p10 (peptide)
peptide: RKTVSFLTRNTAISSIRRRLEVTF
notes: Tp0751 (pallilysin), Treponema pallidum subsp. pallidum; Its composition equals that of the printed scrambled peptide p10scr2; also called peptide 10; source: synthetic peptide; not shown: His6, N-terminal, kept
B2: the binding entry in assay [2] is reported as “no binding”.

B3: Tp0751 synthetic peptide p4 (peptide)
peptide: GGAAQTHTQPPVQTAMRIALWNRA
notes: Tp0751 (pallilysin), Treponema pallidum subsp. pallidum; its central four residues PVQT (98-101) are printed; also called peptide 4; source: synthetic peptide; not shown: His6, N-terminal, kept
As to B3, the binding result in assay [2] is on record as “binds”.

B4: Tp0751 synthetic peptide p6 (peptide)
peptide: QGALQHLLAGLWIQTEISPNSGDI
notes: Tp0751 (pallilysin), Treponema pallidum subsp. pallidum; its central four residues LWIQ (126-129) are printed; also called peptide 6; source: synthetic peptide; not shown: His6, N-terminal, kept
Turning to B4, the binding result in assay [2] was “binds”.
